The values below come from ChEMBL document CHEMBL4888484, “Replenishing the malaria drug discovery pipeline: Screening and hit evaluation of the MMV Hit Generation Library 1 (HGL1) against asexual blood stage Plasmodium falciparum ,using a nano luciferase reporter read-out” (2022).

About 540 (0.36%) of roughly 150,000 compounds showed an effect of 50% or more. The list shows a part of the results.

For this experiment, the system named is Plasmodium falciparum. Kind of experiment: Primary screen in NF54 nanoGlo assay, in single point, at 2uM, 72h; a lower Z score goes with more inhibition. The format is functional, Erythrocyte. The conditions noted are these: timepoint 72 hour.
On to `CCC(=O)Nc1cc(C(=O)NC[C@H]2CCS(=O)(=O)C2)c2c(c1)nc(Cc1ccccc1)n2C`, for which the “% Inhibition” value was found to be 4% and the Z score was -0.5.
Taken in the same sequence, the figures for `CC[C@@H](C(=O)OC(C)(C)C)N(C)C(=O)c1conc1COC` were -6% and 1.14.
Taken in the same sequence, the figures for `CC[C@](C)(NC(=O)CCc1nnc(C2CCCC2)o1)c1ccccc1` were -11% and 1.61.
In the case of `CCN(C)C1(CNS(=O)(=O)C2CC2)CCCC1`, the “% Inhibition” value was -13% and the Z score stood at 1.26.
Regarding `COc1ccc(-n2nc(-c3ccco3)nc2[C@H](C)N2CCN(C)CC2)cc1`, the “% Inhibition” value is listed as -3% and the Z score turned out to be 0.67.
Taken in the same sequence, the figures for `COc1cc2oc(C(=O)N3CCN(Cc4ccccc4)CC3)c(C)c2cc1Br` were -8% and 1.33.
`COCCNC(=O)NCc1cc(-c2cnccn2)nn1C`: the “% Inhibition” value turned out to be 16% and the Z score is -2.01.
`CC1CC(C(=O)Nc2nc3ccsc3s2)CCO1` (centres undefined): the “% Inhibition” value was -12% and the Z score is 1.64.
With `O=C(CCOC[C@H]1CCCO1)Nc1cccnc1`, the “% Inhibition” value was -1% and the Z score is 0.14.
Taken in the same sequence, the figures for `Cc1ccc(-n2cc(-c3ccc(Cl)cc3)nc2NC(=O)CN(CC(C)C)S(=O)(=O)c2ccc(Cl)cc2)cc1` were -6% and 0.75.
As to `Clc1cccc2c1CC[C@@H]2NCc1cc(Br)c2c(c1)OCO2`, the “% Inhibition” value is -15% and the Z score is reported as 1.73.
As for `c1cnc(N2CCN([C@H]3CCOC4(CCOCC4)C3)CC2)nc1`, the “% Inhibition” value was -5% and the Z score is listed as 0.43.
As for `Cc1ccc(Cl)cc1N1C(=O)c2cc(C(C)C)nn2C[C@@]1(C)C(=O)NC1CCCCCCC1`, the “% Inhibition” value turned out to be 2% and the Z score is listed as -0.26.
Taken in the same sequence, the figures for `CC(C)c1noc(CNC(=O)N2CCN(C(=O)c3ccccc3)CC2)n1` were -5% and 1.
Taken in the same sequence, the figures for `Cc1ncc(NC(=O)c2ccc(Br)o2)s1` were -6% and 0.65.
As to `CCCCc1cc(C[C@@H]2C[C@H](NC(C)C)C2(C)C)no1`, the “% Inhibition” value is -2% and the Z score was 0.25.
Taken in the same sequence, the figures for `CC(C)n1[nH]c(=O)c2c1NC(=O)C[C@@H]2c1ccc(O)cc1` were -8% and 1.05.
`Cc1cc(C(F)F)oc1C(=O)N1CC(=O)N(C)C[C@@H]1C`: the “% Inhibition” value is given as 7% and the Z score is -0.99.
Taken in the same sequence, the figures for `FC(F)C1CC(Nc2cccc3nccnc23)C1` (centres undefined) were -13% and 1.34.
As to `Cc1ccc(C)c(-n2cnc(=O)n2CC(=O)N2CCc3sccc3C2)c1`, the “% Inhibition” value worked out at 8% and the Z score is on record as -1.4.
For the compound `CC[C@H](OC1CCCCC1)c1nc(-c2cnn(C)c2N)no1`, the “% Inhibition” value was -16% and the Z score was found to be 2.
Taken in the same sequence, the figures for `CC(C)N1CCN(C(=O)[C@H]2CCCN(c3nnc4c(Cl)cccn34)C2)CC1` were -21% and 3.51.
Taken in the same sequence, the figures for `Cc1nc2c(c(N3CCCCC3)n1)CN(C(=O)c1cc(Cl)cc(Cl)c1)CC2` were -14% and 2.33.
Taken in the same sequence, the figures for `CCCCCN(Cc1nnc(-c2ccccc2)o1)S(=O)(=O)c1cnn(C(F)F)c1` were -4% and 0.5.
Consider `Cn1cc([C@H]2CCCN(C(=O)c3cc(C(F)(F)F)n(C)n3)C2)cn1`, for which the “% Inhibition” value is listed as -17% and the Z score turned out to be 1.98.
Taken in the same sequence, the figures for `O=C(Cc1nnn[nH]1)N(CCC1=CCCCC1)CC1CC1` were -17% and 2.53.
On to `CC1(C)CN(Cc2nccs2)C[C@]1(C)O`, for which the “% Inhibition” value is on record as -14% and the Z score turned out to be 2.36.
Taken in the same sequence, the figures for `Cc1cc(S(=O)(=O)N2CCC(N)CC2C)c(C)o1` (centres undefined) were -3% and 0.5.
Taken in the same sequence, the figures for `COc1nc(-c2cccc(C(=O)NCC3CCOCC3)c2)ncc1F` were 70% and -12.03.
Taken in the same sequence, the figures for `COCCn1ccnc1CN1Cc2ccccc2[C@@H](O)C1` were -15% and 1.82.
`CCc1ccc(C(=O)N2CCC(CN3CCCCC3=O)CC2)cc1`: the “% Inhibition” value is 3% and the Z score is reported as -0.38.
Taken in the same sequence, the figures for `CC[C@@H]1C(=O)NCCCN1C(=O)c1ccnc(-n2cccn2)c1` were -2% and 0.45.
Taken in the same sequence, the figures for `C[C@@H](c1cccc(-c2ccc3c(c2)CCC3=O)c1)N(C)C` were -10% and 1.03.
Taken in the same sequence, the figures for `COc1ccc2c(c1)CN(C(=O)c1cccc(CO)c1)[C@H](c1ccccc1)C2` were -9% and 0.94.
As to `Cn1c(Cl)cnc1Cc1nc2ccccc2c(=O)[nH]1`, the “% Inhibition” value is given as -7% and the Z score turned out to be 0.69.
Taken in the same sequence, the figures for `O=C(C1CC1c1ccccc1)N1CCC(CN2CCCCC2)C1` (centres undefined) were -9% and 1.05.
Taken in the same sequence, the figures for `NC(=O)c1ccccc1OCC#CCNC(=O)NCc1ccccc1` were -14% and 1.74.
Taken in the same sequence, the figures for `CCC(=O)N1CCC(NC(C)c2nc(C(C)C)no2)C(CC)C1` (centres undefined) were -15% and 1.23.
As for `CC(O)C1CCN(C2CCN(c3ccccc3)C2=O)C1` (centres undefined), the “% Inhibition” value was -2% and the Z score amounted to 0.33.
Taken in the same sequence, the figures for `COc1c(CNC(=O)N[C@H]2CCN(CC(F)(F)F)C2)c(C)nn1C` were -17% and 1.94.
Take `CC(C)C(=O)NCCn1cc([C@H](C)c2ccccc2)nn1`: the “% Inhibition” value is reported as -2% and the Z score amounted to 0.38.
Regarding `CN1C[C@H]2CN(C(=O)c3csc4c3CCCC4)C[C@@]2(C(=O)O)C1`, the “% Inhibition” value is on record as -5% and the Z score was 0.76.
